Patent US20230310636A1, “COMBINATION THERAPIES FOR TREATMENT OF CANCER WITH THERAPEUTIC BINDING MOLECULES” (MedImmune Limited, priority 2022, published 2023)

Assays:
[1] = system: MDA-MB-468 breast cancer xenografts; experiment: MDA-MB-468 breast cancer xenograft, ADC with AZD5305; assay type: in vivo, mice; details: E02-GL-SG3932 individually, 0.1 mg/kg and 1 mg/kg, single IV; FIG. 7
Experimental: MDA-MB-468 cells were injected 5×10^6 per mouse into the mammary fat pad of female CB-17 SCID mice. […] Tumor and body weight measurements were recorded twice weekly for the duration of the study.
All animal experiments were conducted in a facility accredited by the Association for Assessment and Accreditation of Laboratory Animal Care under the guidelines of AstraZeneca's Institutional Animal Care and Use Committee and appropriate animal research approvals. Cell line xenograft models were established through subcutaneous implantation of cells in 50% Matrigel (Corning, Corning, NY, USA) in either the right mammary fat pad (MX-1, MDA-MB-468) or left flank (HT29, HT29-huB7-H4) of female CB-17 mice (Envigo, Frederick, MD, USA). When tumor volume reached 150-200 mm^3, mice were randomized and given a single intravenous (IV) injection of vehicle control (20 mM histidine, pH 6; 240 mM sucrose; 0.02% PS-80) or ADCs. Body weight and tumor measurements were determined once or twice weekly, and tumor volume was calculated with the formula

[2] = system: HBCx-39 model (high B7-H4-expressing, BRCA WT); experiment: TNBC PDX efficacy, HBCx-39; assay type: in vivo, mice; details: E02-GL-SG3932 monotherapy, single 1.25 mg/kg IV; FIG. 12A
Experimental: Tumors were established as described in Example 6, and treatments were administered at the doses indicated in each panel. ADCs were delivered as a single bolus IV injection, and AZD5305 was delivered by oral gavage once daily for 28 days. FIGS. 12A-12B: Antitumor efficacy resulting from (A) 1.25 mg/kg or (B) 3.5 mg/kg ADC treatment alone or in combination with AZD5305 in the high B7-H4-expressing BRCA WT HBCx-39 model. FIGS. 12C-12D: Activity resulting from treatment of (C) high B7-H4-expressing BRCA1-mutant HBCx-24 and (D) BRCA1-hypomorphic HBCx-11 models. FIGS. 12E-12F: Efficacy resulting from treatment of (E) HBCx-8, a BRCA1-mutant model, and (F) HBCx-2, a BRCA WT model with low B7-H4 expression.
PDX models of human TNBC were established through subcutaneous implantation of tumor fragments into the flank of athymic nude mice (Envigo, Riom, France) and tested at Xentech (Evry, France). […] Antitumor activity was determined on the last day, at which time all mice in the untreated control group remained in the study. If the end tumor volume (ETV) in the treatment group was less than the initial tumor volume (ITV), the antitumor response from baseline was calculated from the group means by using the formula
Otherwise, the antitumor response was expressed as percent change in tumor volume in the treatment arm relative to that in the untreated control arm, calculated by the formula

B1: E02-GL-SG3932: E02-GL anti-B7-H4 antibody conjugated to the topoisomerase I payload SG3932, average DAR of 8 (conjugate)
heavy: QVQLQQWGAGLLKPSETLSLACTVYGGSFSGYYWNWIRQPPGKGLEWIGEINHSGSTSYNPSLKSRVTISVDTSKNQFSLKLSSVTAADTAVYYCARVLYNWNVDSWGQGTLVTVSSASTKGPSVFPLAPSSKSTSGGTAALGCLVKDYFPEPVTVSWNSGALTSGVHTFPAVLQSSGLYSLSSVVTVPSSSLGTQTYICNVNHKPSNTKVDKRV[not shown - human IgG1 Fc]
light: DIQMTQSPSSLSASVGDRVTITCRASQDIRNDVGWYQQKPGKAPKRLIYAASRLQSGVPSRFSGSGSGTEFTLTISSLQPEDFATYYCLQHNSYPRTFGQGTKVEIKRTVAAPSVFIFPPSDEQLKSGTASVVCLLNNFYPREAKVQWKVDNALQSGNSQESVTEQDSKDSTYSLSSTLTLSKADYEKHKVYACEVTHQGLSSPVTKSFNRGEC
[1]
  anti-tumor activity in vivo (tumor size over time): little to no anti-tumor activity
[2]
  TGI: 24.5%
